Data taken from PubChem BioAssay (NCATS).
The shares of active, inactive and inconclusive entries below differ from those in the screen. Potencies beside an inconclusive call are fits to weak or partial responses and may not hold up. The source made the active and inactive calls. Calls follow the shape of the dose curve; as a rule, active = well fitted cell-killing curve with a large enough effect; inconclusive = small, poorly fitted or top-dose-only effect; inactive = flat fitted curve, though single readings scatter.

Assay: qHTS of pediatric cancer cell lines to identify multiple opportunities for drug repurposing: Primary screen for RD cells (AID 1347104); also: nearly all actives have a fitted effect of over 55% in size
Conditions: RD rhabdomyosarcoma viability, CellTiter-Glo luminescence, 48 h; series mostly up to 46 µM
Summary of the method: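 Primary screen of approved and investigational compounds on cells in growth media at 37 degrees C, 5% CO2. MIPE set at 11-point and NPC set at 8-point dilutions; viability scored by ATP-based luminescence at 48 hours.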
Potency is read from the fitted curve at half-maximal effect; tags tell the direction and shape of the fitted curve.

Structure (SMILES)	Potency
CN(C[C@@H]1COCCO1)S(=O)(=O)Nc1ccc2ccc3ncc(-c4cnn(C)c4)cc3c(=O)c2c1	inconclusive: 3.32 µM [cytotoxic, partial curve]
CN1N=C(N)c2cn([C@@H]3O[C@H](COP(=O)(O)O)[C@@H](O)[C@@H]3O)c3ncnc1c23	inconclusive: 1.66 µM [cytotoxic, full curve]
COc1cc(Nc2nc3ccccc3nc2NS(=O)(=O)c2ccc(NC(=O)c3ccc(C)c(OC)c3)cc2)cc(OC)c1	inconclusive: 18.7 µM [cytotoxic, single point]
Cc1ccc([C@@H]2O[C@H](CO)[C@@H](O)[C@H](O)[C@@H]2O)cc1Cc1ccc(-c2ccc(F)cc2)s1	inconclusive: 26.4 µM [cytotoxic, single point]
CS(=O)(=O)N1CCN(Cc2cc3nc(-c4cccc5[nH]ncc45)nc(N4CCOCC4)c3s2)CC1	active: 1.05 µM
N#Cc1cc(NC(=O)Nc2nnc(-c3ccncc3)s2)ccc1-c1cn[nH]c1	inactive
COC(=O)N[C@H](C(=O)N1CCC[C@@H]1c1ncc(-c2ccc(-c3ccc(-c4cnc([C@@H]5CCCN5C(=O)[C@@H](NC(=O)OC)C(C)C)[nH]4)cc3)cc2)[nH]1)C(C)C	active: 33.2 µM
COc1cc(C(C)C)c(Oc2cnc(NC(CO)CO)nc2N)cc1I	inconclusive: 2.64 µM [cytotoxic, partial curve, poor fit]
COc1cc([C@@H]2c3cc4c(cc3[C@H](O)[C@H]3COC(=O)[C@H]23)OCO4)cc(OC)c1OC	inconclusive: 0.0335 µM [cytotoxic, full curve]
Cc1cc(C(=O)N2CCN(c3cccc(Cl)c3)CC2)n(-c2ccccc2)n1	inconclusive: 0.59 µM [cytotoxic, full curve]
O=C1N(c2ccccc2)c2ccccc2C1(Cc1ccncc1)Cc1ccncc1	inconclusive: 29.6 µM [cytotoxic, partial curve]
CCNC(=O)Nc1ccc2ncc(Nc3ccc(C)cc3)nc2n1	inconclusive: 1.18 µM [cytotoxic, full curve, poor fit]
C=C1C(=O)OC2C=C(C)CCC=C(C)CCC12 (stereo unspecified)	inconclusive: 29.6 µM [cytotoxic, partial curve]
CCC(=O)NC[C@H](Cc1ccc(OCCc2nc(-c3ccccc3)oc2C)cc1)NC(C)=CC(=O)c1ccc(C(F)(F)F)cc1	inconclusive: 9.35 µM [cytotoxic, full curve]
COc1ccc(-c2nc(N3CCOCC3)c3sc(CN(C)c4ncc(C(=O)NO)cn4)cc3n2)cn1	active: 0.0166 µM
O=C1NC(=O)C(=Cc2ccc3c(c2)OC(F)(F)O3)S1	inconclusive: 18.7 µM [cytotoxic, partial curve, poor fit]
